Here are results for 56 sequences from the supplement of paper PMC11417369.

The list shows a part of the results.

This assay relates to PfHDP1 homeodomain (GST-tagged). As to the kind of experiment: gcPBM binding intensity (ln(normalized median fluorescence intensity)); higher = stronger DNA binding. Summed up:
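Binding intensity is the highest Masliner-normalised natural-log median intensity over replicate spots in either probe orientation. To obtain it, GST-tagged P. falciparum DNA-binding domains made in E. coli were incubated for 1 h on an Agilent 4 × 180k array of primer-extended double-stranded 36-bp intergenic genomic probes plus negative controls. Detection used Alexa488 anti-GST antibody with scanning at 488 nm.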
Take “TATGCTATATATTTAGTGCATATATATAACTTTTAT [GTGCAC_site9902]”: the “gcPBM binding intensity (ln)” value came to 8.96.

Turning to “TATATATGTATCATTACACACATGTATACTTATTTG [CACACA_site4138]”, the “gcPBM binding intensity (ln)” value amounted to 6.62.

As for “TGTATAAATATATATACACACATATTTATATATATA [CACACA_site755]”, the “gcPBM binding intensity (ln)” value was 7.05.

Turning to “TACATTTGTATAAATAGTACGCGAAAACAAAAAAAA [XGTACX_site6246]”, the “gcPBM binding intensity (ln)” value turned out to be 7.02.

For the sequence “ATATATGTGCCCATATATATATATATAAATATATGT [GTGCAC_negctrl_site226]”, the “gcPBM binding intensity (ln)” value was determined as 6.63.

As for “ATATTATAATATTTATGTACATATATATAATATATA [XGTACX_site1633]”, the “gcPBM binding intensity (ln)” value worked out at 6.35.

In the case of “TATTAGCATGTTATTACACACAATATAAGATATATA [CACACA_site6775]”, the “gcPBM binding intensity (ln)” value stood at 6.61.

As for “AATATATATTTATAAACACACACCAAAATTTGTGCT [CACACA_site3091]”, the “gcPBM binding intensity (ln)” value came to 6.82.

“ACATTTTGTGTTTTAGCACACAATTTTTCAGAATAT [CACACA_site2961]”: the “gcPBM binding intensity (ln)” value is 6.73.

With “ATAGCTAAGATAGCTTGTACATATATTTACATATAT [XGTACX_site3694]”, the “gcPBM binding intensity (ln)” value was 5.8.

For the sequence “TATAAAATAAAAATTATATATTTTAAATGGATACAA [TGCATGCA_negctrl_site284]”, the “gcPBM binding intensity (ln)” value worked out at 6.46.

Turning to “AAAACAAATTAAAATCGTACAATTATAATGTTAATG [XGTACX_site180]”, the “gcPBM binding intensity (ln)” value worked out at 6.4.

“ATTTAAATGAAAAAATGTACAAAAAGATTTAAACTC [XGTACX_site1489]”: the “gcPBM binding intensity (ln)” value was determined as 6.84.

As to “ATGCACATTTATAAAAGTACATGTATGTAATATGTT [XGTACX_site830]”, the “gcPBM binding intensity (ln)” value was 6.84.

“ATATGTAGTTTTTACCTAATAAAAAAAAAAAAAAAA [CACACA_negctrl_site672]”: the “gcPBM binding intensity (ln)” value worked out at 6.18.

On to “TAAACATATAAAAAGGGTACACATTAAACATAGTAT [XGTACX_site7096]”, for which the “gcPBM binding intensity (ln)” value was determined as 6.38.

In the case of “AAATCATTCCTTTATTCACACAATATCTGTATTTAT [CACACA_site4407]”, the “gcPBM binding intensity (ln)” value stood at 6.59.

As for “TCATAAATGAAACACACACACACATCTGGATACCCC [CACACA_site3332]”, the “gcPBM binding intensity (ln)” value was 7.04.

Take “ATTATATATATAAAGTGTACAAAAAAAAAAAAAAAA [XGTACX_site3134]”: the “gcPBM binding intensity (ln)” value worked out at 6.61.

Take “TATAATAAATCATATGCATGTTGAAAAAAAAAAAAA [TGCATGCA_site923]”: the “gcPBM binding intensity (ln)” value was 6.46.

As to “ATTTGAGAGTTAACAAAATATTTGGCCATCTTTTAT [XGTACX_negctrl_site447]”, the “gcPBM binding intensity (ln)” value was 6.05.

Regarding “AATGTCCTTATTTGCACACACACATATAAGAAATTT [CACACA_site3186]”, the “gcPBM binding intensity (ln)” value came out at 10.6.

Take “AACTCATAGCGGTGTGCACACAAAAAATTAAAAAAA [CACACA_site3033]”: the “gcPBM binding intensity (ln)” value was found to be 11.

Turning to “ATTGTCCTAAATACTACAAAGTAGATCTTTAATATT [CACACA_negctrl_site1795]”, the “gcPBM binding intensity (ln)” value turned out to be 6.25.

Regarding “GAGATGACATTACACAGTACCCAGGAAATCTACGGA [XGTACX_site4931]”, the “gcPBM binding intensity (ln)” value was found to be 6.06.

“TATATATTGTTATATACACACATGTATATAAAAAAT [CACACA_site3221]”: the “gcPBM binding intensity (ln)” value was determined as 6.48.

Regarding “CAAAAAAGGTCCCGGAGTACATATATAATTTTTTTT [XGTACX_site458]”, the “gcPBM binding intensity (ln)” value was 6.79.

In the case of “TTATAATTAAGATATAATCAATAATAACAAATGAAC [CACACA_negctrl_site1690]”, the “gcPBM binding intensity (ln)” value amounted to 6.91.

In the case of “TTTCTTTTTCTAGTTATTTTTACTTATCCCTAATTT [TGCATGCA_negctrl_site460]”, the “gcPBM binding intensity (ln)” value stood at 6.66.

Consider “TTCTTTGCTTCTGTTTCACACATTTTTAAAATAAGC [CACACA_site4741]”, for which the “gcPBM binding intensity (ln)” value stood at 7.58.

Consider “TTAAGCCGCAATATGGGTACATAGGAAGAAGGGGAA [XGTACX_site8397]”, for which the “gcPBM binding intensity (ln)” value came to 6.14.

Take “ATATATAAAAATATTTGTACATATAGTTATATTTAT [XGTACX_site6114]”: the “gcPBM binding intensity (ln)” value worked out at 6.35.

As to “TTAAAGGGAATGTATACACACGTTTCTCTATGTTAT [CACACA_site4793]”, the “gcPBM binding intensity (ln)” value came to 6.33.

As to “TAATTCCATAAGTAAACACACAAATGCCAAAATTTT [CACACA_site3205]”, the “gcPBM binding intensity (ln)” value was 6.46.

With “GTGCGTGCGTGTACTTAACACACATAATATGTATTT [CACACA_site8336]”, the “gcPBM binding intensity (ln)” value came out at 6.89.

For the sequence TCCATATGCAAACTGGTGCACAAGTAGCTTTTATAT, the “gcPBM binding intensity (ln)” value is 10.8.

Regarding “ACATATATGGAGCTTATACACACTTTTATATTTTAA [CACACA_site3854]”, the “gcPBM binding intensity (ln)” value was determined as 6.75.

For the sequence “TTTTAAATATGCCATACACACTACTCTATAATAAAT [CACACA_site6987]”, the “gcPBM binding intensity (ln)” value was found to be 6.56.

Regarding “TTATCATATAATTATTGTACTAAAAAAAAAGCGAGT [XGTACX_site3086]”, the “gcPBM binding intensity (ln)” value came out at 6.94.

Consider “TTATAATAAATATATAAAAAAAAAAAAAAAAAAAAA [CACACA_negctrl_site1639]”, for which the “gcPBM binding intensity (ln)” value came to 6.29.

Take “ATATATTATGGGTGTGCACACAATATTTATATGTTC [CACACA_site2270]”: the “gcPBM binding intensity (ln)” value came out at 10.9.

For the sequence “TTTTCTTATAAATGAAGTACAAAAAAAAAATATATA [XGTACX_site1352]”, the “gcPBM binding intensity (ln)” value stood at 6.55.

For the sequence “TGATAGCACCTTATATGTACATATAATATATTATTA [XGTACX_site837]”, the “gcPBM binding intensity (ln)” value was 6.97.

For “TTATGTGTATAGGTTTGTACATAAAATGATGTATAG [XGTACX_site1401]”, the “gcPBM binding intensity (ln)” value was 6.52.

Turning to “TAGTCATATATATATGTACACACATATATATATTTA [CACACA_site8413]”, the “gcPBM binding intensity (ln)” value amounted to 6.32.

Regarding “TCATGGAATATTTAAAGTACAAAAAGTGTTCTTTAC [XGTACX_site715]”, the “gcPBM binding intensity (ln)” value stood at 5.83.

As to “TATATATATATGTGTACACATGTCGCATTTTTTTAT [CACACA_site4648]”, the “gcPBM binding intensity (ln)” value amounted to 9.06.

For the sequence “GATATTATAAAATAAAAATAAATCATTTCTATTCAT [CACACA_negctrl_site334]”, the “gcPBM binding intensity (ln)” value is 5.78.

In the case of “GTGTCTTTTATTAAATGTACATATTCATAGATAAAA [XGTACX_site8578]”, the “gcPBM binding intensity (ln)” value worked out at 6.56.

On to “AATTGAGAAGTGTGTTGTACATAATGGCACATACCT [XGTACX_site1370]”, for which the “gcPBM binding intensity (ln)” value amounted to 6.5.

In the case of “ACGTAAACATGTAGAAGGCATTACACAATGGTATAC [TGCATGCA_negctrl_site512]”, the “gcPBM binding intensity (ln)” value was determined as 6.47.

Consider “ACCTTAAAAATAACTGCACACAAAAATAAATACCTT [CACACA_site8902]”, for which the “gcPBM binding intensity (ln)” value worked out at 8.72.

As to “TAGAATGAAAAAAAAGCATGCGGGCAAAAATTTTTA [TGCATGCA_site926]”, the “gcPBM binding intensity (ln)” value came out at 6.96.

Turning to “TTATTTTTTTGGAATTCACACACAAAAAAAAAAATA [CACACA_site8650]”, the “gcPBM binding intensity (ln)” value stood at 6.33.

Regarding “ATATATATATATATATGTACATATATATATTATATT [XGTACX_site6303]”, the “gcPBM binding intensity (ln)” value was 9.38.

“TTATGGTGCATGAAATCACACATTGATATATATGCT [CACACA_site5352]”: the “gcPBM binding intensity (ln)” value was determined as 8.81.
